Laboratory results: the supplement of paper PMC8728848
This is one part of the list.

Assays:
Test in all cases: glycan array binding signal (z-score within array); higher = stronger binding
Conditions in all cases: glycan notation: IUPAC condensed, linker removed
[1] = target: Gal(b1-4)GlcNAc(b1-3)Gal(b1-4)GlcNAc(b1-3)Gal(b1-4)GlcNAc(b1-3)Gal(b1-4)GlcNAc(b1-2)Man(a1-3)[Gal(b1-4)GlcNAc(b1-3)Gal(b1-4)GlcNAc(b1-3)Gal(b1-4)GlcNAc(b1-3)Gal(b1-4)GlcNAc(b1-2)Man(a1-6)]Man(b1-4)GlcNAc(b1-4)GlcNAc
Method in brief: (§1)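 The binding signal is a Z-score computed within each array. Data were drawn from 3228 arrays in the Consortium for Functional Glycomics database, restricted to those with a known protein sequence. Scores were averaged over arrays of the same protein sequence at different concentrations or buffers, and over linkers, and negative values can be taken as non-binding.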

[2] = target: Gal(b1-4)GlcNAc(b1-3)Gal(b1-4)GlcNAc(b1-3)Gal(b1-4)GlcNAc(b1-3)Gal(b1-4)GlcNAc(b1-2)Man(a1-3)[Gal(b1-4)GlcNAc(b1-3)Gal(b1-4)GlcNAc(b1-3)Gal(b1-4)GlcNAc(b1-3)Gal(b1-4)GlcNAc(b1-2)Man(a1-6)]Man(b1-4)GlcNAc(b1-4)[Fuc(a1-6)]GlcNAc
Method in brief: as §1

[3] = target: Gal(b1-4)GlcNAc(b1-3)Gal(b1-4)GlcNAc(b1-3)Gal(b1-4)GlcNAc(b1-3)Gal(b1-4)GlcNAc(b1-2)[Gal(b1-4)GlcNAc(b1-3)Gal(b1-4)GlcNAc(b1-3)Gal(b1-4)GlcNAc(b1-3)Gal(b1-4)GlcNAc(b1-6)]Man(a1-6)[Gal(b1-4)GlcNAc(b1-3)Gal(b1-4)GlcNAc(b1-3)Gal(b1-4)GlcNAc(b1-3)Gal(b1-4)GlcNAc(b1-2)Man(a1-3)]Man(b1-4)GlcNAc(b1-4)[Fuc(a1-6)]GlcNAc
Method in brief: as §1

[4] = target: Gal(b1-4)GlcNAc(b1-3)Gal(b1-4)GlcNAc(b1-3)Gal(b1-4)GlcNAc(b1-3)Gal(b1-4)GlcNAc(b1-3)Gal(b1-4)GlcNAc(b1-2)Man(a1-3)[Gal(b1-4)GlcNAc(b1-3)Gal(b1-4)GlcNAc(b1-3)Gal(b1-4)GlcNAc(b1-3)Gal(b1-4)GlcNAc(b1-3)Gal(b1-4)GlcNAc(b1-2)Man(a1-6)]Man(b1-4)GlcNAc(b1-4)GlcNAc
Method in brief: as §1

[5] = target: Gal(b1-4)GlcNAc(b1-3)Gal(b1-4)GlcNAc(b1-3)Gal(b1-4)GlcNAc(b1-3)Gal(b1-4)GlcNAc(b1-3)Gal(b1-4)GlcNAc(b1-2)Man(a1-3)[Gal(b1-4)GlcNAc(b1-3)Gal(b1-4)GlcNAc(b1-3)Gal(b1-4)GlcNAc(b1-3)Gal(b1-4)GlcNAc(b1-3)Gal(b1-4)GlcNAc(b1-2)Man(a1-6)]Man(b1-4)GlcNAc(b1-4)[Fuc(a1-6)]GlcNAc
Method in brief: as §1

[6] = target: Gal(b1-4)GlcNAc(b1-3)Gal(b1-4)GlcNAc(b1-3)Gal(b1-4)GlcNAc(b1-3)Gal(b1-4)GlcNAc(b1-3)Gal(b1-4)GlcNAc(b1-2)[Gal(b1-4)GlcNAc(b1-3)Gal(b1-4)GlcNAc(b1-3)Gal(b1-4)GlcNAc(b1-3)Gal(b1-4)GlcNAc(b1-3)Gal(b1-4)GlcNAc(b1-6)]Man(a1-6)[Gal(b1-4)GlcNAc(b1-3)Gal(b1-4)GlcNAc(b1-3)Gal(b1-4)GlcNAc(b1-3)Gal(b1-4)GlcNAc(b1-3)Gal(b1-4)GlcNAc(b1-2)Man(a1-3)]Man(b1-4)GlcNAc(b1-4)[Fuc(a1-6)]GlcNAc
Method in brief: as §1

[7] = target: Gal(b1-4)GlcNAc(b1-3)Gal(b1-4)GlcNAc(b1-3)Gal(b1-4)GlcNAc(b1-3)Gal(b1-4)GlcNAc(b1-3)Gal(b1-4)GlcNAc(b1-3)Gal(b1-4)GlcNAc(b1-2)Man(a1-3)[Gal(b1-4)GlcNAc(b1-3)Gal(b1-4)GlcNAc(b1-3)Gal(b1-4)GlcNAc(b1-3)Gal(b1-4)GlcNAc(b1-3)Gal(b1-4)GlcNAc(b1-3)Gal(b1-4)GlcNAc(b1-2)Man(a1-6)]Man(b1-4)GlcNAc(b1-4)GlcNAc
Method in brief: as §1

[8] = target: Gal(b1-4)GlcNAc(b1-3)Gal(b1-4)GlcNAc(b1-3)GalNAc
Method in brief: as §1

[9] = target: Gal(b1-4)GlcNAc(b1-3)Gal(b1-4)GlcNAc(b1-3)[Gal(b1-4)GlcNAc(b1-3)Gal(b1-4)GlcNAc(b1-6)]GalNAc
Method in brief: as §1

[10] = target: Gal(b1-4)GlcNAc(b1-3)Gal(b1-4)GlcNAc(b1-6)[Gal(b1-3)]GalNAc
Method in brief: as §1

[11] = target: Gal(b1-4)GlcNAc(b1-3)Gal(b1-4)[Fuc(a1-3)]GlcNAc(b1-3)Gal(b1-4)[Fuc(a1-3)]GlcNAc
Method in brief: as §1

[12] = target: Gal(b1-4)GlcNAc(b1-3)GalNAc
Method in brief: as §1

[13] = target: Gal(b1-4)GlcNAc(b1-3)[Fuc(a1-3)GlcNAc(b1-6)]Gal(b1-4)Glc
Method in brief: as §1

[14] = target: Gal(b1-4)GlcNAc(b1-3)[Gal(b1-4)GlcNAc(b1-6)]Gal(b1-4)GlcNAc
Method in brief: as §1

[15] = target: Gal(b1-4)GlcNAc(b1-3)[GlcNAc(b1-6)]Gal(b1-4)GlcNAc
Method in brief: as §1

[16] = target: Gal(b1-4)GlcNAc(b1-6)Gal(b1-4)GlcNAc
Method in brief: as §1

[17] = target: Gal(b1-4)GlcNAc(b1-6)GalNAc
Method in brief: as §1

[18] = target: Gal(b1-4)GlcNAc(b1-6)[Gal(b1-3)]GalNAc
Method in brief: as §1

[19] = target: Gal(b1-4)GlcNAc(b1-6)[Gal(b1-4)GlcNAc(b1-3)]GalNAc
Method in brief: as §1

Gal(b1-4)GlcNAc6P = target: Gal(b1-4)GlcNAc6P
Method in brief: as §1

Gal(b1-6)Gal = target: Gal(b1-6)Gal
Method in brief: as §1

Gal3S(b1-3)GalNAc = target: Gal3S(b1-3)GalNAc
Method in brief: as §1

Gal3S(b1-3)GlcNAc = target: Gal3S(b1-3)GlcNAc
Method in brief: as §1

[20] = target: Gal3S(b1-3)[Fuc(a1-4)]GlcNAc
Method in brief: as §1

Gal3S(b1-4)Glc = target: Gal3S(b1-4)Glc
Method in brief: as §1

Gal3S(b1-4)Glc6S = target: Gal3S(b1-4)Glc6S
Method in brief: as §1

Gal3S(b1-4)GlcNAc = target: Gal3S(b1-4)GlcNAc
Method in brief: as §1

[21] = target: Gal3S(b1-4)[Fuc(a1-3)]Glc6S
Method in brief: as §1

[22] = target: Gal3S(b1-4)[Fuc(a1-3)]GlcNAc
Method in brief: as §1

[23] = target: Gal3S(b1-4)[Fuc(a1-3)]GlcNAc6S
Method in brief: as §1

Gal3S4S(b1-4)GlcNAc = target: Gal3S4S(b1-4)GlcNAc
Method in brief: as §1

Gal3S6S(b1-4)GlcNAc = target: Gal3S6S(b1-4)GlcNAc
Method in brief: as §1

Gal3S6S(b1-4)GlcNAc6S = target: Gal3S6S(b1-4)GlcNAc6S
Method in brief: as §1

Gal4S(b1-4)GlcNAc = target: Gal4S(b1-4)GlcNAc
Method in brief: as §1

Gal4S6S(b1-4)GlcNAc = target: Gal4S6S(b1-4)GlcNAc
Method in brief: as §1

Gal6P(b1-4)GlcNAc = target: Gal6P(b1-4)GlcNAc
Method in brief: as §1

Gal6S(b1-3)GlcNAc = target: Gal6S(b1-3)GlcNAc
Method in brief: as §1

Gal6S(b1-3)GlcNAc6S = target: Gal6S(b1-3)GlcNAc6S
Method in brief: as §1

B1: AT1G15820(2) (Arabidopsis thaliana), Q9LMQ2 (protein)
chain: MAMAVSGAVLSGLGSSFLTGGKRGATALASGVGTGAQRVGRKTLIVAAAAAQPKKSWIPAVKGGGNFLDPEWLDGSLPGDFGFDPLGLGKDPAFLKWYREAELIHGRWAMAAVLGIFVGQAWSGVAWFEAGAQPDAIAPFSFGSLLGTQLLLMGWVESKRWVDFFNPDSQSVEWATPWSKTAENFANYTGDQGYPGGRFFDPLGLAGKNRDGVYEPDFEKLERLKLAEIKHSRLAMVAMLIFYFEAGQGKTPLGALGL
[1]
  glycan array binding signal (z-score): 0.045
[2]
  glycan array binding signal (z-score): 0.197
[3]
  glycan array binding signal (z-score): 0.178
[4]
  glycan array binding signal (z-score): 0.327
[5]
  glycan array binding signal (z-score): -0.034
[6]
  glycan array binding signal (z-score): 0.166
[7]
  glycan array binding signal (z-score): -0.296
[8]
  glycan array binding signal (z-score): 0.427
[9]
  glycan array binding signal (z-score): 0.337
[10]
  glycan array binding signal (z-score): -0.422
[11]
  glycan array binding signal (z-score): -0.336
[12]
  glycan array binding signal (z-score): -0.445
[13]
  glycan array binding signal (z-score): -0.313
[14]
  glycan array binding signal (z-score): -0.371
[15]
  glycan array binding signal (z-score): -0.237
[16]
  glycan array binding signal (z-score): -0.457
[17]
  glycan array binding signal (z-score): 0.696
[18]
  glycan array binding signal (z-score): -0.285
[19]
  glycan array binding signal (z-score): 0.172
Gal(b1-4)GlcNAc6P
  glycan array binding signal (z-score): -0.327
Gal(b1-6)Gal
  glycan array binding signal (z-score): 0.325
Gal3S(b1-3)GalNAc
  glycan array binding signal (z-score): 0.527
Gal3S(b1-3)GlcNAc
  glycan array binding signal (z-score): 0.833
[20]
  glycan array binding signal (z-score): -0.253
Gal3S(b1-4)Glc
  glycan array binding signal (z-score): 0.944
Gal3S(b1-4)Glc6S
  glycan array binding signal (z-score): 0.421
Gal3S(b1-4)GlcNAc
  glycan array binding signal (z-score): -0.278
[21]
  glycan array binding signal (z-score): 1.96
[22]
  glycan array binding signal (z-score): 0.95
[23]
  glycan array binding signal (z-score): 0.588
Gal3S4S(b1-4)GlcNAc
  glycan array binding signal (z-score): -0.501
Gal3S6S(b1-4)GlcNAc
  glycan array binding signal (z-score): -0.059
Gal3S6S(b1-4)GlcNAc6S
  glycan array binding signal (z-score): 1.14
Gal4S(b1-4)GlcNAc
  glycan array binding signal (z-score): -0.105
Gal4S6S(b1-4)GlcNAc
  glycan array binding signal (z-score): -0.06
Gal6P(b1-4)GlcNAc
  glycan array binding signal (z-score): -0.581
Gal6S(b1-3)GlcNAc
  glycan array binding signal (z-score): -0.225
Gal6S(b1-3)GlcNAc6S
  glycan array binding signal (z-score): 0.062
